# Data: article PMC4336329 (PLoS ONE, 2015)
# Hit rate of the full screen: of about 310,000 compounds, about 14,000 (4.5%) showed an effect of 50% or more. The effect is printed as a negative number. This is one part of the list.
# Molecular target: human ether-à-go-go-related gene (hERG) potassium channel (human, UniProt Q12809)
# Assay: primary screen, population patch clamp on CHO cells stably expressing hERG
# 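Further: peak tail current of the secondary pulse compared with the same well before compound.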
# Chain of human ether-à-go-go-related gene (hERG) potassium channel (Q12809 whole entry, looked up): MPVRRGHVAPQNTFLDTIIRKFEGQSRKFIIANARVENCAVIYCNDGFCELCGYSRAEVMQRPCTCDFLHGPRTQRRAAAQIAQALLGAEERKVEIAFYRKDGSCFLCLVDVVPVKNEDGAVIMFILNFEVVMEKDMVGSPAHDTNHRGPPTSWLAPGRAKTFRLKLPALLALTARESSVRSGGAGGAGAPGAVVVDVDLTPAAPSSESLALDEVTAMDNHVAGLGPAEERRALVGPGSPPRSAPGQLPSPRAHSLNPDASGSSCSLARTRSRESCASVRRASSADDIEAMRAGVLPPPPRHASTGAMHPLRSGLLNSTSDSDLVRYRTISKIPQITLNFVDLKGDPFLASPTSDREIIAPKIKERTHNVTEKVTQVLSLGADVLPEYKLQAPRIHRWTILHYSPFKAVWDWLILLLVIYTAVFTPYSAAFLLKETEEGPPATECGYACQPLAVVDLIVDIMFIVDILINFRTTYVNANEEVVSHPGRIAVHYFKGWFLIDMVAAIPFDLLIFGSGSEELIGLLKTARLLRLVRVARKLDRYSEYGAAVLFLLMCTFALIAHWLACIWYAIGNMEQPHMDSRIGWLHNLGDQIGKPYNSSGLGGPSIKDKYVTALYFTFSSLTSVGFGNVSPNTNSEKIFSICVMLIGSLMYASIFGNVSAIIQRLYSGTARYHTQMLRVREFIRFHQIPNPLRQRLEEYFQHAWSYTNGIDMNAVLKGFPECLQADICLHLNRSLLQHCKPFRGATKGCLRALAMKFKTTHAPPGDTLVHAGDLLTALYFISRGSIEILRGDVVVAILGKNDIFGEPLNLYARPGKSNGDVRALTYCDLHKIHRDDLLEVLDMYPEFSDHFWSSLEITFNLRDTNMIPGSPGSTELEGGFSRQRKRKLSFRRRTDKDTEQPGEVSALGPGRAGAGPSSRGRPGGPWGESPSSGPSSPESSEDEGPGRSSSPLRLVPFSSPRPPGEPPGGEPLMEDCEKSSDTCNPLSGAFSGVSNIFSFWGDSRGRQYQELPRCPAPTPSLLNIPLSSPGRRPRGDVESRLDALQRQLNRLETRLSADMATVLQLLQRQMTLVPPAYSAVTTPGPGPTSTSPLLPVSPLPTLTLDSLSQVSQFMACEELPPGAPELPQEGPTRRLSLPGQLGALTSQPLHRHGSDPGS
row,SMILES,"hERG current change (%, negative = inhibition) at 10uM"
1,O=C(NCCOc1ccccc1)c1ccccc1Cl,-0.87%
2,O=C(NCCOC(=O)c1cccs1)c1cccnc1,1.92%
3,CC(C)(CNC(=O)Cc1ccc(Cl)cc1Cl)N1CCCCC1,7.29%
4,CC(=O)Nc1ccccc1C(=O)C(=O)Nc1cccc(F)c1,3.43%
5,O=C(c1cc2cc(Br)ccc2[nH]1)N1CCC2(CC1)OCCO2,-1.15%
6,COc1cccc(-c2nnc(NC(=O)c3ccccc3Br)o2)c1,-8.88%
7,COCCn1c(=O)[nH]c2cc(C(=O)NCCc3ccc(OC)c(OC)c3)ccc2c1=O,10.6%
8,CC(c1ccco1)N(Cc1ccco1)C(=O)Nc1ccccc1 (centres unmarked),3.62%
9,Cc1nc(Nc2ccc(Cl)c(Cl)c2)sc1C(=O)Nc1ccccc1,10.9%
10,CCC1CCCCN1CC(O)COCc1cccc(OC)c1 (centres unmarked),3.15%
11,Clc1ccc(-c2noc(CSc3nnc(-c4ccncc4)n3-c3ccccc3)n2)cc1,-39.2%
12,COc1ccccc1N=c1oc2cc(O)ccc2cc1C(N)=O,-14.9%
13,O=C(CCc1nnc2ccc(NCc3ccc(Cl)cc3)nn12)NC1CCCCC1,-19.7%
14,O=C(/C=C/c1cc([N+](=O)[O-])ccc1OC(F)F)NCc1ccc(F)cc1,-43.7%
15,CCOc1ccc(CC(=O)Nc2cc(=O)n(C)c(=O)n2C)cc1,25.7%
16,COC(=O)C1=C(c2cccc(OC)c2OC)C[C@@H]2CC[C@H]1N2C(=O)NCCS(C)=O (some centres unmarked),2.56%
17,O=C(COC(=O)COc1cccc(Br)c1)Nc1c(Cl)cccc1Cl,18.1%
18,CN(C)c1ccc(C(CNS(=O)(=O)c2ccc(F)c(F)c2)c2c[nH]c3ccccc23)cc1 (centres unmarked),1.3%
19,COc1cc2cc(C(c3nnnn3C(C)(C)C)N3CCC(C)CC3)c(=O)[nH]c2cc1OC (centres unmarked),-9.93%
20,Cc1ccc(CN(c2ccc(C(=O)N3CCc4ccccc4C3)cc2)S(C)(=O)=O)cc1,-20.8%
21,O=C(Nc1cc(Cl)cc(Cl)c1)C1CCC(=O)N1Cc1ccccc1Cl (centres unmarked),8.65%
22,Cc1cc(=O)oc2cc(OCC(=O)Nc3nnc(C(C)C)s3)ccc12,20.3%

row,SMILES,"hERG current change (%, negative = inhibition) at 10uM"
1,CC(C)C1S/C(=N/N=C/c2ccco2)NC1=O (centres unmarked),1.37%
2,NS(=O)(=O)c1ccc(Sc2nc3ccccc3s2)c([N+](=O)[O-])c1,3.91%
3,O/N=C1/C(=C\c2ccccc2)N2CCC1CC2,-0.492%
4,CC(NC(=O)c1ccco1)C(c1cccs1)N1CCN(c2ccccc2F)CC1 (centres unmarked),-22.9%
5,CC(C)(C)C(=O)NC(=S)NNC(=O)c1sc2ccccc2c1Cl,5.79%
6,CC(C)Cn1c(S(=O)(=O)O)nc2ccccc21,-3.47%
7,CCOC(=O)c1ccc(NC(=S)NCCc2ccc(F)cc2)cc1,23.2%
8,Cc1cccc(C(=O)c2cn[nH]c2-c2ccccc2O)c1,19.5%
9,O=C1C2C(c3ccccc3)C=CC(c3ccccc3)C2C(=O)N1CCO (centres unmarked),-6.03%
10,CC1(C)CC(NS(=O)(=O)c2ccc(S(=O)(=O)N3CCOCC3)cc2)CCO1 (centres unmarked),0.423%
11,COc1ccccc1NC(=O)CSc1n[nH]c(Cc2ccccc2)n1,21.2%
12,CCOc1ccc(NC(=O)CCC(=O)NNC(=O)c2ccccc2Cl)cc1,6.46%
13,Cc1ccc(C(C)C)c(O)c1,19.7%
14,CCOc1ccc(N2C(=O)c3cccnc3C2Nc2ccc(C)c(C)c2)cc1 (centres unmarked),-17.7%
15,CSCCC(NC(=O)c1ccccc1)C(=O)N(C)CC(=O)Nc1ccc(N2CCOCC2)cc1 (centres unmarked),5.72%
16,CC(=O)Nc1ccc(-c2cn3cc(C)ccc3n2)cc1,-4.93%
17,CCOC(=O)c1[nH]c2ccccc2c1NC(=O)CCN1CC(C)OC(C)C1 (centres unmarked),-0.714%
18,COc1cccc(CN2c3ccc(Br)cc3C(=O)CS2(=O)=O)c1,-6.61%
19,O=C1c2ccccc2NC(c2ccc(O)c(O)c2)N1c1ccccc1Cl (centres unmarked),19.4%
20,Cc1cccc(Cn2c(NCC(C)O)nc3c2c(=O)n(C)c(=O)n3C)c1 (centres unmarked),9.86%
21,COc1ccccc1-c1c(C)nn2c(N3CCN(Cc4ccccc4)CC3)cc(C)nc12,4.33%
22,Cc1ccc(/C=C/S(=O)(=O)Nc2ccc(C)cc2)cc1,-7%
